# Laboratory results taken from patent publication US20200079850A1 (SUTRO BIOPHARMA, published 2020).
# Read-outs that look alike come from different tables or passages of the source.
# T1: human LAG3 expressed on the cell surface (CHO-LAG3, 293T-LAG3 cells) (human, UniProt P18627 23-525)
# T1 construct: Stably transfected CHO or HEK293T cells; also called Human LAG3 (CHO); Human LAG3 (293T)
# T1 sequence: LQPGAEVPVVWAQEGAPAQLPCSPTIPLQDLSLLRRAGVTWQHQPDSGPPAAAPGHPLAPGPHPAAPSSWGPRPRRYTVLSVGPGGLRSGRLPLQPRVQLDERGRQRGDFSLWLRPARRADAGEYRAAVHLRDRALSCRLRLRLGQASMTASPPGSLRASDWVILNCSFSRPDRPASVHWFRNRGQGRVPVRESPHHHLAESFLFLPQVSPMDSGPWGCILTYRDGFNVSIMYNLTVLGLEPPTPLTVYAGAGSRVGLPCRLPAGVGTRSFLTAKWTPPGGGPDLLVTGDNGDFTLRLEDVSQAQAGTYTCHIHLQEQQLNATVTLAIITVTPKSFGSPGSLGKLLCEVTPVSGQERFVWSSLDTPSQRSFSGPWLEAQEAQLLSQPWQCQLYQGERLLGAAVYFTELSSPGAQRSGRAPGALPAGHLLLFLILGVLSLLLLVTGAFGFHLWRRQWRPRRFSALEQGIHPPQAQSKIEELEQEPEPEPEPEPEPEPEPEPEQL
# B1: PD-1/LAG3 Bi-specific Construct A: aPD1 1353-G10 scFv_zwB × aLAG3 Fab_zwA (bispecific antibody, human IgG1, kappa)
# scFv: MEVQLVQSGAEVKKPGASVKVSCKASGYRFPHYGISWVRQAPGQGLEWMGWISAYNGNTNYAQKLQGRVTMTTDTSTNTAYMELRSLRSDDTAVYYCARDVDYGTGSGYWGQGTLVTVSSGGGGSGGGGSGGGGSSYELTQPPSVSVSPGQTARITCSGDALPKQYAYWYQQKPGQAPVMVIYKDTERPSGIPERFSGSSSGTKVTLTISGVQAEDEADYYCQSADNSITYRVFGGGTKVTVLAAGSDQ[no letters for human IgG1 Fc with changes]
# heavy: MQVQLVESGGGVVQPGRSLRLSCAASGFTFSSYGMHWVRQAPGKGLEWVAVIWYDGSYKYYADSVKGRFTISRDNSKNTLYLQMNSLRAEDTAVYYCAREEAPENWDYALDVWGQGTTVTVSSASTKGPSVFPLAPSSKSTSGGTAALGCLVKDYFPEPVTVSWNSGALTSGVHTFPAVLQSSGLYSLSSVVTVPSSSLGTQTYICNVNHKPSNTKVDKKVEPKSCDKTHTCPPCPAPELLGGPSVFLFPPKPKDTLMISRTPEVTCVVVDVSHEDPEVKFNWYVDGVEVHNAKTKPREEQYNSTYRVVSVLTVLHQDWLNGKEYKCKVSNKALPAPIEKTISKAKGQPREPQVYVYPPSREEMTKNQVSLTCLVKGFYPSDIAVEWESNGQPENNYKTTPPVLDSDGSFALVSKLTVDKSRWQQGNVFSCSVMHEALHNHYTQKSLSLSPGK
# light: [no letters for about 100 residues][no letters for about 120 residues]
# notes: also called 1449-G09.2-Fab-zwA
# What was measured:
# [1] = target: T2, human PD-1 expressed on the surface of CHO cells (human, UniProt Q15116 25-288); experiment: flow cytometry cell binding on CHO cells expressing human PD-1; PE anti-human IgG detection; one site-specific binding with Hill slope fit
# T2 construct: I took it as human PD-1; also called CHO-PD1
# Procedure: (§1) CHO-k cells stably expressing PD-1 or LAG3 (human or cynomolgus) on the cell surface were used to assess binding affinity of anti-PD-1/LAG3 bispecific antibody constructs. Cells were seeded at 100,000 cells/well in 100 μL of FACS buffer (1×PBS, 0.5% BSA, 0.1% sodium azide) in 96-well polypropylene plates. The cells were centrifuged at 1.5K rpm and resuspended with test antibodies diluted in FACS buffer and incubated on ice for 1 hour. The cells were washed twice with FACS buffer and incubated on ice for 30 mins with R-Phycoerythrin-AffiniPure F(ab′)2 Fragment Goat Anti-Human IgG (H+L) secondary detection antibody (1:200 dilution, Jackson ImmunoResearch Laboratories, West Grove, Pa.). The cells were washed twice with FACS buffer, fixed in 4% paraformaldehyde in PBS (Santa Cruz Biotechnology; Dallas, Tex.) for 20 mins on ice in the dark, washed twice with FACS buffer, and analyzed using the BD LSR II Flow Cytometer (BD Biosciences; San Jose, Calif.). Data were analyzed using FlowJo (FlowJo, LLC; Ashland, Oreg.) to determine mean fluorescence intensities. Binding constants were calculated using the statistical software, GraphPad Prism (GraphPad Software; La Jolla, Calif.) using the nonlinear regression equation, one site—specific binding with Hill slope. The secondary antibody by itself was used as a control.
# [2] = target: T1, human LAG3 expressed on the cell …; experiment: flow cytometry cell binding on CHO cells expressing human LAG3; PE anti-human IgG detection; one site-specific binding with Hill slope fit
# Procedure: as §1
# [3] = target: T2, human PD-1 expressed on the surface of …; experiment: flow cytometry, CHO-PD1 cells
# Procedure: as §1
# [4] = target: T3, hPD1 (Acro Biosystems), SPR analyte (human, UniProt Q15116 partial chain); experiment: SPR (Biacore), antibody captured by anti-Fc, hPD1 as analyte, 25 C
# T3 construct: also called human PD1 kinetics
# Procedure: (§2) Anti-Fc polyclonal antibodies were immobilized onto a CMS chip (GE Life Sciences) using amine coupling chemistry (from Amine Coupling Kit, GE Life Sciences). The immobilization steps were carried out at a flow rate of 25 μl/min in 1×HBS-EP+buffer (GE Life Sciences; 10× Stock diluted before use). The sensor surfaces were activated for 7 min with a mixture of NHS (0.05 M) and EDC (0.2 M). The Anti-Fc antibodies were injected over all 4 flow cells at a concentration of 25 ug/ml in 10 mM sodium acetate, pH 4.5, for 7 min. Ethanolamine (1 M, pH 8.5) was injected for 7 min to block any remaining activated groups. An average of 12,000 response units (RU) of capture antibody was immobilized on each flow cell.
# Kinetic binding experiments were performed at 25° C. using 1×HBS-EP+buffer. Test and control antibodies were injected over the anti-Fc surface at concentrations of 5-10 μg/mL for 12 seconds at a flow rate of 10 μl/min on flow cells 2, 3 and 4, followed by a buffer wash for 30 seconds at the same flow rate. Kinetic characterization of antibody samples was carried out with a dilution series of antigen and 1 injection of 0 nM antigen. […]
# (§3) The data was fit with the Biacore T200 Evaluation software, using a 1:1 Langmuir binding model. KD (affinity, nM) was determined as a ratio of the kinetic rate constants calculated from the fits of the association and dissociation phases.
# [5] = target: T3, hPD1 (Acro Biosystems), SPR analyte; experiment: as above; remark: listed apart in the source
# Procedure: as §2
# Kinetic binding experiments were performed at 25° C. using 1×HBS-EP+buffer. Test and control antibodies were injected over the anti-Fc surface at concentrations of 5-10 μg/mL for 12 seconds at a flow rate of 10 μl/min on flow cells 2, 3 and 4, followed by a buffer wash for 30 seconds at the same flow rate. Kinetic characterization of antibody samples was carried out with a dilution series of antigen and 1 injection of 0 nM antigen. After capturing ligand (antibody) on the anti-Fc surface, the analyte (hPD1 or hLAG3, Acro Biosystems, Newark, Del.) was bound at 100, 25, 6.25 and 0 nM for 180 seconds, followed by a 450 second dissociation phase at a flow rate of 50 μl/min. Between each ligand capture and analyte binding cycle, regeneration was carried out using 2 injections of 10 mM Glycine pH 2.0 for 30 seconds at 30 μL/min, followed by a 30 second buffer wash step.
# as §3
# T3 sequence (Q15116 25-167 limits assumed): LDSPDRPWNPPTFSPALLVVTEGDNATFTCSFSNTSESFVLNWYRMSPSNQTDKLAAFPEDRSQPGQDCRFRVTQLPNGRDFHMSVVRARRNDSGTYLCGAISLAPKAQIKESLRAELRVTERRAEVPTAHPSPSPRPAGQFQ
binder,measurement,setting,value
B1,Bmax,[1],3030 MFI
same,Kd,[1],0.5 nM
same,Bmax,[2],1040 MFI
same,Kd,[2],0.5 nM
same,Kd,[3],3.7 nM
same,Kd,[4],1.52 nM
same,koff,[4],0.000849 s⁻¹
same,Kd,[5],1.52 nM
same,koff,[5],0.000849 s⁻¹
same,kon,[5],559000 M⁻¹ s⁻¹
